About 14,000 (4.5%) of roughly 310,000 compounds showed an effect of 50% or more. The effect is printed as a negative number. Some of the results follow.
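Note: peak tail current of the secondary pulse compared with the same well before compound.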

human ether-à-go-go-related gene (hERG) potassium channel, sequence (Q12809 whole entry, looked up): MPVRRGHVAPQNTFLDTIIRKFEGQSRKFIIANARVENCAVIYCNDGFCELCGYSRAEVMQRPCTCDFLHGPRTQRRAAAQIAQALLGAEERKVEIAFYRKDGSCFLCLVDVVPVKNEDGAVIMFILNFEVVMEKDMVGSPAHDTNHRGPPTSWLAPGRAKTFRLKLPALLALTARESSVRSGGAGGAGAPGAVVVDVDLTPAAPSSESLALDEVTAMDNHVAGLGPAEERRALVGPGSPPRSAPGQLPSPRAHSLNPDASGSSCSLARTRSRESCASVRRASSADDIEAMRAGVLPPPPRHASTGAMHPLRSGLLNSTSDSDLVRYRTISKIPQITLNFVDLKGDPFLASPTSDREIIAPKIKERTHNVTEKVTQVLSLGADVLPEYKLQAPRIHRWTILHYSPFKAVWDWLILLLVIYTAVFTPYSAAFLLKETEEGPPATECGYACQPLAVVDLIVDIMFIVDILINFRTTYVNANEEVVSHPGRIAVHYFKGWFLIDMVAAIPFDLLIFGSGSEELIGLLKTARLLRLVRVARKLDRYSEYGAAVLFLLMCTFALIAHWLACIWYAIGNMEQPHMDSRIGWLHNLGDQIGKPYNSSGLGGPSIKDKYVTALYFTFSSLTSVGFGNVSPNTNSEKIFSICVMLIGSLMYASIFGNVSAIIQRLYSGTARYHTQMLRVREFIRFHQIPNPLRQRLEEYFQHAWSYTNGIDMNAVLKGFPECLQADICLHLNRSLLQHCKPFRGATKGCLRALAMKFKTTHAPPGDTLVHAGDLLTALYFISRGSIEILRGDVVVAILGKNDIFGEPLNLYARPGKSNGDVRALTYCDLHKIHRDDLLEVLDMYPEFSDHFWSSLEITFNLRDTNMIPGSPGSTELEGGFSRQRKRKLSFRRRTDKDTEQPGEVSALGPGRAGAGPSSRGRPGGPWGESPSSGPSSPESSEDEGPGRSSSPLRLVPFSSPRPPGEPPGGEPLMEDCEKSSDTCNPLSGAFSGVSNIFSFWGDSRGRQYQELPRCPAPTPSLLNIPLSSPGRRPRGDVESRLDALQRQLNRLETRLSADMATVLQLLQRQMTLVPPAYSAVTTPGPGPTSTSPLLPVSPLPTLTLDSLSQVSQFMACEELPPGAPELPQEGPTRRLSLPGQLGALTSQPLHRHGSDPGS

The experiment has as its target human ether-à-go-go-related gene (hERG) potassium channel (human, UniProt Q12809). As to the kind of experiment: primary screen, population patch clamp on CHO cells stably expressing hERG.
Turning to `Cc1c(NC(=O)C(C)OC(=O)CCOc2ccccc2)c(=O)n(-c2ccccc2)n1C` (stereo not drawn), the “hERG current change (%, negative = inhibition) at 10uM” value is given as 9.35%.
In the case of `Cc1ccc(/C=C/C(=O)c2nc3ccccc3[nH]2)cc1`, the “hERG current change (%, negative = inhibition) at 10uM” value was -3.88%.
The result for `CC1(C)CC(=O)C(c2c[nH]c3ccccc23)C(=O)C1` reads 20.3%.
The result for `O=C(/C=N\O)NCCCNCc1ccccc1` reads -12.7%.
The result for `O=C(Cn1ccc(NC(=O)OCc2ccccc2)nc1=O)NCc1ccccn1` reads 7.53%.
As to `CC(C)CCSc1nc(N2CCOCC2)c2c(c1C#N)CC(C)(C)OC2`, the “hERG current change (%, negative = inhibition) at 10uM” value is reported as 7.88%.
The result for `CCOC(=O)CNC(=S)N(Cc1cccs1)C1CCCC1` reads -5.82%; that for `O=C(SCC(O)C(O)CS)c1cccs1` (stereo not drawn), 2.18%.
On to `NC(=O)c1ccc(-n2nnnc2Oc2ccc(Br)cc2)cc1`, for which the “hERG current change (%, negative = inhibition) at 10uM” value was -3.65%.
For `CCN(C(=O)Cc1nc(N)n[nH]1)C1(C(=O)Nc2ccccc2)CCCCC1`, the “hERG current change (%, negative = inhibition) at 10uM” value is 17.7%.
The result for `CCc1nc(N2CCN(S(C)(=O)=O)CC2)c2c3c(sc2n1)CCCC3` reads -5.91%; that for `COc1cccc(N(C(=O)c2cnccn2)C(C(=O)NC2CCCCC2)c2ccc(Cl)cc2)c1` (stereo not drawn), -0.326%; that for `CNc1oc(C)nc1S(=O)(=O)c1ccccc1`, 3.81%.
The result for `CCOC1(OCC)N=C(N)C2(C#N)C(c3cccc(OC)c3OC)C12C#N` (stereo not drawn) reads -1.8%; that for `Clc1cccc(OCCCCN2CCCCC2)c1`, -36.6%; that for `CC(=O)Nc1cccc(NC(=O)CSc2ncc(C(=O)Nc3ccc(F)cc3)c(=O)n2C)c1`, -15.8%.
Consider `CCOC(=O)N1CCN(C(=S)Nc2ccc3nc(N4CCN(CC)CC4)cc(C)c3c2)CC1`, for which the “hERG current change (%, negative = inhibition) at 10uM” value was -23.5%.
The result for `O=C(Oc1c(CN2CCOCC2)cc(Cl)c2cccnc12)c1ccccc1Br` reads -9.21%.
As for `CCn1c(=O)n(CC)c2cc(N3CCCC3)c(NC(=O)c3ccc(C)c([N+](=O)[O-])c3)cc21`, the “hERG current change (%, negative = inhibition) at 10uM” value amounted to 9.33%.
In the case of `O=C(CCC1CCCC1)NCc1cccs1`, the “hERG current change (%, negative = inhibition) at 10uM” value stood at 13.9%.
On to `COc1ccc(OCc2nnc(SCC(=O)c3c(N)n(C)c(=O)n(C)c3=O)n2-c2ccccc2F)cc1`, for which the “hERG current change (%, negative = inhibition) at 10uM” value was 37.1%.
The result for `COc1cc(NC(=O)CC(C)C)ccc1NC(=O)c1ccco1` reads -8.72%.
Regarding `CCNC(=S)N1CCN(c2nc(CC)nc3sc4c(c23)CCCC4)CC1`, the “hERG current change (%, negative = inhibition) at 10uM” value is on record as -15.4%.
The result for `O=C1CCC(C(=O)N2CCCCO2)CN1Cc1cccc(C(F)(F)F)c1` (stereo not drawn) reads -3.13%; that for `COc1ccc(-c2noc(CCC(=O)N3CCC(C)CC3)n2)cc1`, -21.9%; that for `CCN(CC)CCNC(=S)N1CCn2c(nc3ccccc32)C1`, -33.1%.
The result for `Cc1ccc(CC(=O)NC2CCSC2=O)cc1` (stereo not drawn) reads 15.8%.
The result for `COc1ccccc1N/C(=N/S(=O)(=O)c1ccc(C)cc1)c1ccc(Cl)cc1` reads -47.9%.
For `O=C(NC1(C(F)(F)F)NC(=O)N(Cc2cccnc2)C1=O)c1ccncc1` (stereo not drawn), the “hERG current change (%, negative = inhibition) at 10uM” value was 19.6%.
The result for `O=C(CCN1CCOCC1)NCC(=O)Nc1ccc(Br)cc1C(=O)c1ccccc1` reads -49.5%.
The result for `Cc1cnnn1-c1cccc([N+](=O)[O-])c1` reads -9.68%; that for `Cc1ccc(-n2nc(-c3ccco3)cc2C(=O)O)cc1`, 0.414%.
The result for `CCOc1ccc(N2C(=O)CC(N3CCN(c4ccc(C(=O)c5ccncc5)cc4)CC3)C2=O)cc1` (stereo not drawn) reads -17.2%.
Take `COc1cc(/C=C/C(=O)c2ccc3c(c2)OCO3)cc(Cl)c1O`: the “hERG current change (%, negative = inhibition) at 10uM” value is -3.04%.
The result for `COc1ccc([N+](=O)[O-])cc1NC(=O)CN(C)S(=O)(=O)c1ccccc1` reads -30.3%.
For `CCOC(=O)c1ccccc1NC(=O)COC(=O)CCNS(=O)(=O)c1ccccc1`, the “hERG current change (%, negative = inhibition) at 10uM” value is -3.26%.
The result for `CN1CCCC(OC(=O)c2cc(Cl)ccc2Cl)C1` (stereo not drawn) reads -2.55%; that for `CN(C)c1ccc(C(=O)OCC(=O)NCCNC(=O)COC(=O)c2ccc(N(C)C)cc2)cc1`, 18.5%.
The result for `CCN(CC(=O)Nc1c(F)cccc1F)C(=O)CCSc1ccc(F)cc1` reads -7.11%.
The result for `O=C(NCc1cccnc1)C(=O)N/N=C/c1ccccc1[N+](=O)[O-]` reads -10.7%.
On to `COCCNC(=O)C(=O)N/N=C/c1ccc(C(=O)OC)cc1`, for which the “hERG current change (%, negative = inhibition) at 10uM” value is given as 17.6%.
The result for `O=C(NCCSCc1ccco1)Nc1ccccc1` reads 17.8%; that for `C=C/C(C)=C/CC1C(=C)CCC2C(C)(C(=O)O)CCCC12C` (stereo not drawn), 9.3%.
The result for `CC(C)c1nnc(NC(=O)CCC(=O)Nc2ccc3cn[nH]c3c2)s1` reads 9.4%; that for `Cn1c(Oc2ccccc2NCc2cccc(Br)c2)cc(=O)n(C)c1=O`, -21%.
The result for `COC(=O)c1ccc(CSc2nc3ccc(S(N)(=O)=O)cc3[nH]2)cc1` reads 12.4%.
As for `Cc1cccn2c(=O)nc(SCC(=O)Nc3cccc4ccccc34)nc12`, the “hERG current change (%, negative = inhibition) at 10uM” value is listed as -5.48%.
The result for `COC(=O)C1=C(c2ccc3ccccc3c2)C[C@@H]2CC[C@H]1N2C` reads -15.8%.
Take `COc1ccc(C(C(=O)NC2CCCCC2)N(Cc2cccs2)C(=O)Cc2c[nH]c3ccccc23)cc1OC` (stereo not drawn): the “hERG current change (%, negative = inhibition) at 10uM” value is given as -19.8%.
The result for `COC(=O)c1ccccc1Oc1c(F)c(F)nc(N2CCOCC2)c1F` reads 0.824%; that for `CCCCNC(=O)NC(C(N)=O)P(=O)(OCC)OCC` (stereo not drawn), 7.79%; that for `Cn1c(=O)n(Cc2ccco2)c(=N)c2c3c(sc21)CCC3`, -64.8%.
Take `Cc1nn(-c2ccccc2)c2sc(C(=O)NNC(=O)COc3ccccc3)cc12`: the “hERG current change (%, negative = inhibition) at 10uM” value is recorded as -4.96%.
`CSC(=NNC(=O)c1ccccc1O)SC`: the “hERG current change (%, negative = inhibition) at 10uM” value is reported as -38.6%.
The result for `CCOC(=O)c1c(CC(C)C)csc1NC(=O)CCl` reads 1.29%.
The result for `COc1ccc(F)c(CN2CCC(n3nccc3NC(=O)CCCc3ccccc3)CC2)c1` reads -86.7%; that for `c1ccc(-n2c(Sc3cnccn3)nnc2-c2cccs2)cc1`, -33.3%.

The values above are taken from PMC4336329 (PLoS ONE, 2015).
